# Hit rate of the full screen: of about 46,000 compounds, about 60 (0.1%) were called active. Inconclusive results (about 3%) are left out. The call rests on the fitted dose curve; in most records, active means well fitted inhibition curve with a large enough effect; inconclusive means small, poorly fitted or top-dose-only effect; inactive means no such curve, though single readings can be large or run the other way. This is one part of the list.
# Assay: Primary qHTS assay for Inhibitors of ovarian cancer metastasis using an organotypic tumor microenvironment (TME) model. Further: nearly all actives have a fitted effect of over 65% in size.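 On activity change, negative = inhibition: plate controls were DMSO wells for no effect and tomatine positive control wells for full effect.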
# Details: SKOV3ip1-GFP adhesion/invasion on 3D omental model, fluorescence; series mostly up to 45.8 µM; activity change, negative = inhibition: at the top concentration
# In short: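 A 3D layer of primary human omental fibroblasts, mesothelial cells, fibronectin and collagen I, grown 48 hr, received SKOV3ip1-GFP cells in serum-free medium plus compounds at 0.36-46 umol/L. After 2 hr RT and 16 hr 37 C, fixed adherent GFP cells were counted; normalized to DMSO and tomatine.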
SMILES,"activity change, negative = inhibition",outcome
COc1cc(C)c(Sc2cnc(NC(=O)c3ccc(CNC(C)C(C)(C)C)cc3)s2)cc1C(=O)N1CCN(C(C)=O)CC1 (stereo unspecified),inactive: 19%,–
Cc1ccc(-c2nnc(Nc3cccc(Br)c3)c3ccccc23)cc1S(=O)(=O)N1CCCCC1,inactive: -1.6%,–
CCc1ccc(CN(Cc2ccco2)C(=O)COc2ccccc2Cl)cc1,–,inactive
COc1ccc(C2C(C(=O)Nc3ccc(C)cc3C)=C(C)Nc3nc(SC)nn32)cc1OC (stereo unspecified),inactive: -8.92%,–
Cc1ccc(NC(=O)CSc2nnc(COc3ccc(Cl)cc3)o2)cc1,–,inactive
NC(=O)CN1C(=O)C2(SCC(=O)N2c2cccc(F)c2)c2ccccc21 (stereo unspecified),–,inactive
COc1ccc(NC(=O)C2CCN(S(=O)(=O)c3cn(C)cn3)CC2)cc1Cl,inactive: 12.1%,–
CCOc1ccccc1NC(=O)C1CCCN(c2ncnc3onc(-c4ccc(F)cc4)c23)C1 (stereo unspecified),inactive: 1.35%,–
CC(C)C(=O)Nc1nnc(S(=O)(=O)N(C)Cc2ccc(F)cc2)s1,inactive: 4.23%,–
O=C(c1ccc([N+](=O)[O-])cc1)N(Cc1ccco1)c1ccccn1,inactive: -9.35%,–
CC(=O)OCc1cnc(C)c2oc(=O)c(C(=O)Nc3cc(F)ccc3C)cc12,–,inactive
CC(C)n1nc(-c2ccc3oc(N)nc3c2)c2c(N)ncnc21,inactive: 6.85%,–
COc1ccc(S(=O)(=O)Nc2ccc3c(c2)sc(=O)n3C)cc1Cl,inactive: -2.76%,–
COc1ccccc1CNC(=O)c1ccc(-c2nc(CS(=O)c3ccc(C)cc3)c(C)o2)cc1 (stereo unspecified),inactive: 1.21%,–
Cc1cc(C)cc(NC(=O)c2cn3c4c(ccc(Cl)c4c2=O)OC(C)C3)c1 (stereo unspecified),inactive: 0.0887%,–
CCCCn1c(=O)c2oc3ccccc3c2n(Cc2ccc(OC)cc2)c1=O,inactive: -16%,–
CCOC(=O)c1ccc(NC(=O)CCCn2nc(C)c3sc4ccccc4c3c2=O)cc1,inactive: 3.96%,–
CCCCN(CC)CCCNC(=O)Cn1nc(CC)n2c(cc3sccc32)c1=O,–,inactive
CSc1ncc(C(=O)NCc2ccc(F)cc2)c(-c2ccccc2)n1,inactive: -8.33%,–
CCOc1ccc(OCCOCCn2c(-c3ccc(Cl)cc3)nc3ccccc3c2=O)cc1,inactive: -8.85%,–
Cc1cccc(-c2nc(SCCCOc3cc(C)c(Cl)c(C)c3)n3[nH]c(=O)cc3n2)c1,inactive: -2.34%,–

SMILES,"activity change, negative = inhibition",outcome
COc1ccc(Nc2ncnc3c2cnn3-c2cc(Cl)ccc2C)cc1OC,–,inactive
O=C(Cc1ccc(-c2ccccc2)cc1)NCCS(=O)(=O)N1CCN(c2cccc(Cl)c2)CC1,–,inactive
COC(=O)CC(=O)CSc1nc2cc(C(=O)NC(C)C)ccc2c(=O)n1CCc1ccccc1,inactive: 51.6%,–
Cc1ccc(C(=O)OC2=C(C(=O)c3ccccc3)N(C)S(=O)(=O)c3ccccc32)cc1,inactive: -11.5%,–
CCCc1oc2ccc(NS(=O)(=O)c3ccc(OCC)cc3)cc2c1C(=O)OCC,inactive: -1.24%,–
CCOc1ccc(Nc2sc(C(=O)c3ccc(F)cc3)c(N)c2S(=O)(=O)c2ccc(C)cc2)cc1,–,inactive
Cc1oc2ncn(CC(C)C)c(=O)c2c1C(=O)NCc1cccc(Cl)c1,inactive: 5.1%,–
Cc1nc2cc(-c3ccc(Cl)cc3)nn2c(C)c1CCC(=O)N1CCN(c2ccccc2)CC1,–,inactive
O=C(CN1C(=O)COc2ccc(S(=O)(=O)N3CCOCC3)cc21)NCc1ccc(Cl)cc1,inactive: -22%,–
CCN(C(=O)CSc1nnc(-c2cc3occc3n2C)n1-c1ccccc1C)c1ccccc1,inactive: 1.54%,–
COc1cc(Cl)c(C)cc1NC(=O)CNC(=O)Cn1ccc2ccccc2c1=O,–,inactive
COc1ccc(Cl)cc1NC(=O)c1ccc(CN2C(=O)CCn3nc(C)cc32)cc1,–,inactive
Cc1ccc(Cn2c(C(=O)Nc3ccc(Cl)cc3)cc3sccc32)cc1,inactive: -3.38%,–
Cc1ccc(-c2onc(C)c2C)cc1S(=O)(=O)N1CCC(C)CC1,inactive: -34%,–
CCc1ccc(-c2nc3c(c(SCc4ccccc4)n2)Cc2c(CO)cnc(C)c2O3)cc1,inactive: -1.24%,–
CC(C)Oc1ccc(CNC(=O)c2cc3cccc4c3n2CC(C)S4)cc1 (stereo unspecified),inactive: 3.33%,–
CCOc1ccc(C2C(=O)N(C3CCCCC3)CC(=O)N2Cc2ccccc2OC)cc1OC (stereo unspecified),–,inactive
CCOC(=O)N1CCC(NC(=O)c2ccc3c(c2)N(Cc2ccccc2)C(=O)c2ccccc2S3(=O)=O)CC1,inactive: -20.4%,–
COc1ccc(Br)c2c1-c1nc(NC(=O)c3ccc(F)cc3)sc1C2,inactive: 4.46%,–
CCOc1ccccc1CNC(=O)C(CC)n1nc(C)c2c(C)n(-c3ccccc3)nc2c1=O (stereo unspecified),inactive: -14.8%,–
Cc1c(C(=O)NCc2ccccc2Cl)sc2nc3n(c(=O)c12)CCCC3,inactive: 2.29%,–

SMILES,"activity change, negative = inhibition",outcome
COc1cc2c(cc1OC)C(COc1ccc3c(C)cc(=O)oc3c1)N(C(=O)c1ccc(C)cc1)CC2 (stereo unspecified),inactive: 10.2%,–
Cc1ccc(C)c(NC(=O)CSc2nc(=O)n(CCN3CCOCC3)c3c2CCC3)c1,inactive: -3.89%,–
CCC(=O)N1c2ccccc2CC1C(=O)NCCCN1CCN(c2cccc(Cl)c2)CC1 (stereo unspecified),inactive: 6.12%,–
CC(C)Cn1cc(NC(=O)NCc2ccc(Cl)cc2)c2ccccc2c1=O,inactive: -9.2%,–
COc1ccc(C2c3c(n(C)c4ccccc34)C(=O)N2CC(=O)Nc2c(C)cc(C)cc2C)cc1 (stereo unspecified),inactive: -3.61%,–
COCCCNc1nc2c(c(=O)n(Cc3ccccc3)c(=O)n2C)n1C,–,inactive
COc1ccc(C(=O)CN2CCN(S(=O)(=O)c3ccc(F)cc3)CC2)cc1,inactive: 7.89%,–
O=C(Nc1ccc(Cl)cc1)c1ccc2oc(=O)n(Cc3ccccc3)c2c1,inactive: 41.8%,–
Cc1ccc2c(c1)C(=O)OC(C(=O)Nc1ccc(C(=O)O)cc1)C2 (stereo unspecified),inactive: -27.8%,–
O=C(c1cc(-c2ccc(Br)cc2)n[nH]1)N1CCN(S(=O)(=O)c2ccc(Br)s2)CC1,inactive: -23.4%,–
CCCCSc1nnc2[nH]c(=O)cc(C)n12,inactive: -0.864%,–
CCOC(=O)c1nnn(CC(=O)NC(=O)Nc2ccccc2F)c1C(=O)OCC,–,inactive
CC1CCN(C(=O)CCS(=O)(=O)c2cc3c(cc2Cl)NC(=O)CO3)CC1,inactive: -1.89%,–
CC(=O)OC1=C(C(C)=O)N(Cc2ccccc2)S(=O)(=O)c2ccccc21,inactive: 15.9%,–
Cc1ccc(Cl)cc1NC(=O)c1csnn1,inactive: 1.01%,–
Cc1cc(NC(=O)c2ccc(F)cc2)ccc1-c1cc2ccccc2oc1=O,inactive: -3.7%,–
COc1ccc(-c2cn3c(n2)sc2cc(C(=O)Nc4ccc(F)cc4)ccc23)cc1,inactive: 5.93%,–
CC(=O)N1CCC2(CC1)OC(=O)C(C)=C2C(=O)NCc1ccccc1Cl,inactive: 1.71%,–
CCC(=O)N1CCc2cc(Br)cc(S(=O)(=O)CCC(=O)Nc3ccc(CC)cc3)c21,inactive: 1.06%,–

# From PubChem BioAssay AID1963576 (National Center for Advancing Translational Sciences (NCATS), 2024)
